In PubChem BioAssay AID360 (National Center for Advancing Translational Sciences (NCATS), 2006):
Out of some 48,000 compounds screened, about 550 (1.1%) were called active. About 4% were inconclusive and are not listed. No stated cut-off is given here; in the data, active means potency below about 15 µM; inconclusive means mostly about 16 µM to 33 µM; inactive means weaker than that. The list shows a part of the results.

The compounds below were run against Lysosomal acid glucosylceramidase (Homo sapiens) (UniProt P04062) (assay: Glucocerebrosidase). Conditions: purified enzyme, resorufin glucoside fluorescence (screen aimed at inhibitors), 20 min.
Outline: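 Compounds titrated against 0.2 nM normal enzyme, 30 uM resorufin beta-D-glucopyranoside substrate, citrate/phosphate buffer with taurocholate and tween-20, pH 5.9. Reaction ran 20 min at room temperature; fluorescence (Ex 548/Em 600) gave AC50.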
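Further: the screen sought inhibitors.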
Potency means the concentration at half of the fitted maximal effect.

Sequence of UniProt P04062 (P04062 whole entry, looked up): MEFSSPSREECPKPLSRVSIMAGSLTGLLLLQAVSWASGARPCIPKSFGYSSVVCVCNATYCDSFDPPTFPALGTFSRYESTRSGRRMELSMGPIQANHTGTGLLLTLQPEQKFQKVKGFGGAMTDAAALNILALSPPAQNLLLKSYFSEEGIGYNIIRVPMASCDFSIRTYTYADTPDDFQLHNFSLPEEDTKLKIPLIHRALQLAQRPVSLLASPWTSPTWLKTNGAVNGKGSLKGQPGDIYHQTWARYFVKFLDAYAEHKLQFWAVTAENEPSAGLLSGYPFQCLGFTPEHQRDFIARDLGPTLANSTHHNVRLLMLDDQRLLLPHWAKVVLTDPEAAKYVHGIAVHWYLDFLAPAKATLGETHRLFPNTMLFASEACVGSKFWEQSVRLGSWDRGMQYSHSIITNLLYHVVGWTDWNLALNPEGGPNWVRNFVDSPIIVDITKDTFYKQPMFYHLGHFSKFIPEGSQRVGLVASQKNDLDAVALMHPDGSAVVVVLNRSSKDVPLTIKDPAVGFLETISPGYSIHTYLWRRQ

Potency, inactive:
Cc1nn(C)c(C)c1NC(=O)CSc1nc(-c2ccccc2F)nc2c1cnn2-c1ccccc1 > 76.9 µM, CN(c1nc(-c2ccccc2)cs1)C1CCS(=O)(=O)C1 (stereo unspecified) > 76.9 µM, CCC(=O)n1nc(NCc2ccc(OC)c(OC)c2)nc1NCc1ccc(OC)c(OC)c1 > 76.9 µM, CCOc1ccccc1C(=O)Nc1ccccc1O > 76.9 µM, CC1CCCCC1NS(=O)(=O)c1ccc(-n2cnnn2)cc1 (stereo unspecified) > 76.9 µM, COc1ccccc1CNC(=O)c1cc2sccc2n1C > 76.9 µM, Cn1c(=O)c2c(nc(CN3CCN(c4ccccc4)CC3)n2Cc2c(F)cccc2Cl)n(C)c1=O > 76.9 µM, CCOCCCNC(=O)c1ccc(OC(C)=O)cc1 > 76.9 µM, c1ccc(Cc2nnc3sc(Nc4ccccc4)nn23)cc1 > 76.9 µM, CCCCc1c(O)nc(SCC(=O)N2CCOCC2)n(-c2ccccc2C)c1=O > 76.9 µM, CCCOC(=O)C1[C@H]2C(=O)N(CCCOC)C[C@]23C=C[C@H]1O3 (stereo partly specified) > 76.9 µM, O=C(O)CCC(=O)Nc1ccc(N2CCCCC2)c(C(=O)O)c1 > 76.9 µM, NC(=O)C1CCN(C(=O)CSc2ccccn2)CC1 > 76.9 µM, Cc1c(-c2ccccc2)oc2nc3c(c(=O)n(C)c(=O)n3C)n12 > 76.9 µM, Cc1ccccc1-c1nc(CN2CCC(C(=O)NCc3ccco3)CC2)c(C)o1 > 76.9 µM, CCc1ccc(S(=O)(=O)c2n[nH]n3c2nc(=O)c2ccccc23)cc1 > 76.9 µM, Cc1c2cccn2cc[n+]1C > 76.9 µM, CCOc1ccc(CN2CCN(S(=O)(=O)c3ccc(NC(C)=O)cc3)CC2)cc1OC > 76.9 µM, C=CCOc1ccc(C2C(C(=O)c3ccco3)=C(O)C(=O)N2CCCN(CC)CC)cc1 (stereo unspecified) > 76.9 µM, CCOC(=O)N1CCN(CC(=O)Nc2c(C(=O)OC)[nH]c3ccccc23)CC1 > 76.9 µM, O=C(Cn1c(-c2cncs2)nc2ccccc21)NC1CCCC1 > 76.9 µM, CCOC(=O)C(NC(=O)c1ccccc1)(N1CCOCC1)C(F)(F)F (stereo unspecified) > 76.9 µM, CCn1c(=S)sc2nc(C)sc21 > 76.9 µM, CC1CN(C(=O)c2ccc(COCC(F)(F)F)o2)CC(C)O1 (stereo unspecified) > 76.9 µM, COc1ccc(N(C)S(=O)(=O)c2c(C)[nH]c(=O)[nH]c2=O)cc1 > 76.9 µM, CC(C)OCCCNC(=O)CCc1nc(-c2ccccc2)no1 > 76.9 µM, COc1cc(OC)cc(C(=O)N(Cc2cc3cc(C)ccc3[nH]c2=O)C(C)C)c1 > 76.9 µM, CS(=O)(=O)NCc1ccc(C(=O)NCCOc2ccccc2)cc1 > 76.9 µM, Cc1nc(-n2cc(F)c(=O)[nH]c2=O)c2nc(C)oc2n1 > 76.9 µM, Cc1nn2c(=O)c(NC(=O)c3ccc(F)cc3)cnc2s1 > 76.9 µM, COc1cccc(NC(=O)CSc2nncn2-c2ccccn2)c1 > 76.9 µM, Cc1ccc(-n2c(SCc3cc(=O)n4ccsc4n3)nnc2-c2cccnc2)c(C)c1 > 76.9 µM, Cc1cccc(NC(=O)CSc2nnc(-c3cc(C)n(-c4ccccc4)c3C)o2)c1C > 76.9 µM, C/C=C/c1ccc(OCCCn2cncn2)c(OC)c1 > 76.9 µM, CCn1cc(C(=O)NCC2CCCO2)c2cc(OC)c(OC)cc2c1=O (stereo unspecified) > 76.9 µM, CCN(CC)S(=O)(=O)c1ccc(Br)c(OC)c1 > 76.9 µM, Cn1c(=O)c2c(-c3ccncc3)c3c(nc2n(C)c1=O)-c1ccccc1C3=O > 76.9 µM, Cc1ccc(CCC(=O)Nc2ccc(S(N)(=O)=O)cc2)o1 > 76.9 µM, CC1(C)Cc2c(c(=S)nc(-c3ccccc3)n2CCN2CCOCC2)CO1 > 76.9 µM, CCCc1[nH]nc2c1C1(C(=O)N(C(C)C)c3ccccc31)C(C#N)=C(N)O2 (stereo unspecified) > 76.9 µM, Cc1ccc(C)c(NC(=O)CSc2nnc(-c3ccco3)o2)c1 > 76.9 µM, CCCc1nnc(NC(=O)CCC(=O)N2CCN(CCOc3ccc(C)cc3)CC2)s1 > 76.9 µM, Cc1cc(C)nc(N(C#N)CN2C(=O)c3ccccc3S2(=O)=O)n1 > 76.9 µM, O=C(c1cccc(Cl)c1)N1CCCC(C(=O)N2CCCCCC2)C1 (stereo unspecified) > 76.9 µM, CC(c1ccccc1)n1c(NCCCn2ccnc2)nc2c1c(=O)[nH]c(=O)n2C (stereo unspecified) > 76.9 µM, CCc1nc(SCC(=O)Nc2nccs2)c2oc3ccccc3c2n1 > 76.9 µM, O=C(Cn1c(=O)n(CCC(=O)N2CCc3ccccc3C2)c(=O)c2ccccc21)NCC1CCCO1 (stereo unspecified) > 76.9 µM, OC(CCN1CCOCC1)(c1ccc(Cl)cc1)C1CCCCC1 (stereo unspecified), CCOC(=O)c1c(C)[nH]c(C(=O)COC(=O)c2cnc(C)cn2)c1C > 76.9 µM, CCCCCn1c(CN2CCN(C(=O)OCC)CC2)nc2c1c(=O)n(C)c(=O)n2C > 76.9 µM, COC(=O)C1C(=O)C2=C(CC1C)NC(C)=C(C(=O)OC1CCCCC1)C2c1ccc(N(C)C)cc1 (stereo unspecified) > 76.9 µM, COC(=O)c1c(-c2cccs2)csc1NC(=O)c1cccnc1 > 76.9 µM, COc1ccccc1N1CCN(C(=O)c2cc(-c3cccc(Cl)c3)on2)CC1 > 76.9 µM, COc1ccccc1N1CCN(C(=O)c2ccc3c(=O)n(Cc4ccco4)c(=S)[nH]c3c2)CC1 > 76.9 µM, C[N+]1(CCOS(=O)C23CC4CC(CC(C4)C2)C3)CCOCC1 (stereo unspecified) > 76.9 µM, COc1ccccc1N1CCN(C(=O)c2cccc(N3C(=O)NC4CC3(C)Oc3ccccc34)c2)CC1 (stereo unspecified) > 76.9 µM
